Data from publication PMC3784504.
Where two headings read alike, the source gives them in different places. These are yes or no findings as the source states them, for the method shown. In cells and extracts the contact can be indirect. Some results given as binding are weak or reduced against the parent protein; the word gives no strength. For some of these results: Tags and fused reporters may be left off the sequences shown. Each block holds one molecule with its values, some of them ahead of it.

The chains behind the UniProt entries cited, without tags or fusion partners.
UniProt P23696: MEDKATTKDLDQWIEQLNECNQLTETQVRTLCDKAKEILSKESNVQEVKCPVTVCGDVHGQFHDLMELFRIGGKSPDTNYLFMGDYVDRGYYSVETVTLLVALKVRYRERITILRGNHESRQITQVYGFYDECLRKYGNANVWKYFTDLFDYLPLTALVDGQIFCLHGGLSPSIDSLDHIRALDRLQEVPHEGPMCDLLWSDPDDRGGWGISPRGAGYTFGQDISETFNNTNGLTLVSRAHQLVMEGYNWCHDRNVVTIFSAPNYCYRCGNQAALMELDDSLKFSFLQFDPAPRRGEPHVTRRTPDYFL

What was measured:
[1] = target: T1, cohesin subunit SMC1 (Drosophila (endogenous in embryos and S2 cells)) (UniProt Q9VCD8); experiment: co-IP; IP of SA or SMC1 from S2 cell extracts; cells mock-treated or depleted of NAP1 and/or PP2A by RNAi, with or without colchicine; immunoblot
T1 sequence: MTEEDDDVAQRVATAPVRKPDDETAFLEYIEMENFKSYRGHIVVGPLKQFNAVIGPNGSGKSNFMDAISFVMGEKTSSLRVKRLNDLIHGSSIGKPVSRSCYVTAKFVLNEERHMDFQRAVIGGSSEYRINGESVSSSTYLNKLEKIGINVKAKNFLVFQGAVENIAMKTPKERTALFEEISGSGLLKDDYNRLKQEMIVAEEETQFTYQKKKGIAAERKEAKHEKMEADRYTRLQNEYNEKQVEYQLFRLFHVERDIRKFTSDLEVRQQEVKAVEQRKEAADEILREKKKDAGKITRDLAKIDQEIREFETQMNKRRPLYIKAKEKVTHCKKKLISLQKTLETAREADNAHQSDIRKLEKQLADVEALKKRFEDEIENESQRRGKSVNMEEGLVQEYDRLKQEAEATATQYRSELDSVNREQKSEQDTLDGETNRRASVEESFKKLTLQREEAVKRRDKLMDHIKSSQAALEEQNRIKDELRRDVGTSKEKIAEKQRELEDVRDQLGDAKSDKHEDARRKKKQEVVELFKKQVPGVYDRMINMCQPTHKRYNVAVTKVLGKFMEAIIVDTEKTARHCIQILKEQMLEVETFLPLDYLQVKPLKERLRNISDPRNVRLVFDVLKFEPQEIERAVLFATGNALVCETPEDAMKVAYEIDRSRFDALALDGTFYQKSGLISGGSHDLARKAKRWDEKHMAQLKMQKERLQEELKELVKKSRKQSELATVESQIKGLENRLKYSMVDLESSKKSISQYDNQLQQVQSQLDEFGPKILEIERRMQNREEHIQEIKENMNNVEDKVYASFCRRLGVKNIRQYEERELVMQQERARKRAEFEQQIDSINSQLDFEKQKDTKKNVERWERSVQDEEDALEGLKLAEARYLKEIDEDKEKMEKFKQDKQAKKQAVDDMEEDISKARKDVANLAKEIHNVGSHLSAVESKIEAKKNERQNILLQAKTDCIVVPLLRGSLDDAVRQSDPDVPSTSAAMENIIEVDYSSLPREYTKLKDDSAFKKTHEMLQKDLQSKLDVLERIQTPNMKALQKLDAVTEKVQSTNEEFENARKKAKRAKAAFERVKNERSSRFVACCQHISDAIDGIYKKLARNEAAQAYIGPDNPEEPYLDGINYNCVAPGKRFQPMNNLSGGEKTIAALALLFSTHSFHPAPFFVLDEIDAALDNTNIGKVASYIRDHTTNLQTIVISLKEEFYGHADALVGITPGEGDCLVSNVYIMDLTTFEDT

[2] = target: protein phosphatase 2A (PP2A) catalytic subunit (Drosophila (endogenous in embryos and S2 cells)) (UniProt P23696); experiment: co-IP; IP of SA or PP2A from Drosophila embryo nuclear extract; lower stringency washes, 200 mM KCl, 0.1% NP40; immunoblot
[3] = target: protein phosphatase 2A (PP2A) catalytic subunit (Drosophila (endogenous in embryos and S2 cells)) (UniProt P23696); experiment: condition: only high stringency washes (600 mM KCl); co-IP; IP of SA, NAP1 or PP2A from Drosophila embryo nuclear extract; washes with 600 mM KCl, 0.1% NP40; immunoblot; mock IP with pre-immune serum
[4] = target: T1, cohesin subunit SMC1 (Drosophila (endogenous in embryos and S2 cells)); experiment: co-IP; IP of SA or SMC1 from S2 cell extracts; cells mock-treated or depleted of NAP1 and/or PP2A by RNAi, with or without colchicine; immunoblot; remark: listed apart in the source

binding [1]: binds
Molecule: protein phosphatase 2A (PP2A) catalytic subunit (from UniProt P23696 1-309) (enzyme)

binding [2]: binds
binding [3]: no binding
B1: MeiS332 (protein, UniProt Q24141 1-401)
chain: MGSKVEQQYKLLNAELMDQVQKQRLEIGEYRKRVISLEREIMDIREEHVLQNHRQRMENISIVRSLMLSLNVDSDSLAVRQEPAPAAQINRPSGPRRSSREICKDMRRTCALARTTRPISPRRSSSVTSTVSSTSRRSSAEVQSEVVTTRIPEDRRANKPTPPPRRPAELVFDEDDSDDDFDEAVSPVEETQTEQNEENNRLFSIIEENGSEGESTDSSSSCEAIYCDTTFESSPPNAQVTVTPSGRALREVDTNIPVAVSLSRGKETGKGSWLAISVAVEDSPQEPSIQCPRLAVTRPSQSSGIFPDVNGLTPRRSLFNGIGKMAGSTSTPKSFLVEEMPSIRTRSRTAANKKSENTDMSSSFCNNSARPSRSCRPTSLVEPSLKNKLRNGSKGKAKAKK

binding [4]: binds
B2: histone chaperone NAP1 (protein, UniProt Q9W1G7 1-370)
chain: MDAPAEGHVDPESCNEIEDEKSGSDCQSMPAYMNSVMRRQYLQQMVKMLPAPVQNRIVFLKNLQLQHLNIEAQFFEDVYKLEQKYQVQYQPLFDKRREIIEGKVDPAEEKPQWKEPESSTDNEADAEHFREALSSLKSIPKDAKGIPGFWLTVFRNTAIMSEMVQPHDEPAIRKLIDISIKYDNGHSYTLEFHFDKNEYFSNSVLTKQYVLKSTVDPNDPFAFEGPEIYKCTGCTINWEKKMNLTVKTIRKKQKHKERGAVRTIVKQVPTDSFFNFFSPPEVPSDQEEVDDDSQQILATDFEIGHFLRARIIPKAVLYYTGDIVDDEDDEDEEEYDENEEDEYDDDDAPPPKGPKSAGIKKQSPNDCPNQ
